Assay results: the supplement of paper PMC8728848
Some of the results follow.

What was measured:
Assay in all cases: glycan array binding signal (z-score within array); higher = stronger binding
Conditions in all cases: glycan notation: IUPAC condensed, linker removed; mutation: I144G
[1] = target: Neu5Ac(a2-6)Gal(b1-4)GlcNAc(b1-2)Man(a1-3)[GlcNAc(b1-4)][Neu5Ac(a2-6)Gal(b1-4)GlcNAc(b1-2)Man(a1-6)]Man(b1-4)GlcNAc(b1-4)GlcNAc
How it was run: (§1)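 The Consortium for Functional Glycomics database supplied 3228 glycan arrays, of which those lacking an available protein sequence were dropped. The binding signal, a within-array Z-score, was averaged across arrays of the same protein sequence and across linkers. Negative scores can be read as non-binding.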

[2] = target: Neu5Ac(a2-6)Gal(b1-4)GlcNAc(b1-2)Man(a1-3)[Man(a1-6)]Man(b1-4)GlcNAc(b1-4)GlcNAc
How it was run: as §1

[3] = target: Neu5Ac(a2-6)Gal(b1-4)GlcNAc(b1-2)Man(a1-3)[Neu5Ac(a2-3)Gal(b1-4)GlcNAc(b1-2)Man(a1-6)]Man(b1-4)GlcNAc(b1-4)GlcNAc
How it was run: as §1

[4] = target: Neu5Ac(a2-6)Gal(b1-4)GlcNAc(b1-2)Man(a1-3)[Neu5Ac(a2-6)Gal(b1-4)GlcNAc(b1-2)Man(a1-6)]Man(b1-4)GlcNAc(b1-4)GlcNAc
How it was run: as §1

[5] = target: Neu5Ac(a2-6)Gal(b1-4)GlcNAc(b1-2)Man(a1-3)[Neu5Ac(a2-6)Gal(b1-4)GlcNAc(b1-2)Man(a1-6)]Man(b1-4)GlcNAc(b1-4)[Fuc(a1-6)]GlcNAc
How it was run: as §1

[6] = target: Neu5Ac(a2-6)Gal(b1-4)GlcNAc(b1-2)Man(a1-6)Man(b1-4)GlcNAc(b1-4)GlcNAc
How it was run: as §1

[7] = target: Neu5Ac(a2-6)Gal(b1-4)GlcNAc(b1-2)Man(a1-6)[Gal(b1-4)GlcNAc(b1-2)Man(a1-3)]Man(b1-4)GlcNAc(b1-4)GlcNAc
How it was run: as §1

[8] = target: Neu5Ac(a2-6)Gal(b1-4)GlcNAc(b1-2)Man(a1-6)[GlcNAc(b1-2)Man(a1-3)]Man(b1-4)GlcNAc(b1-4)GlcNAc
How it was run: as §1

[9] = target: Neu5Ac(a2-6)Gal(b1-4)GlcNAc(b1-2)Man(a1-6)[Man(a1-3)]Man(b1-4)GlcNAc(b1-4)GlcNAc
How it was run: as §1

[10] = target: Neu5Ac(a2-6)Gal(b1-4)GlcNAc(b1-2)[Neu5Ac(a2-6)Gal(b1-4)GlcNAc(b1-4)]Man(a1-3)[GlcNAc(b1-4)][Neu5Ac(a2-6)Gal(b1-4)GlcNAc(b1-2)[Neu5Ac(a2-6)Gal(b1-4)GlcNAc(b1-6)]Man(a1-6)]Man(b1-4)GlcNAc(b1-4)GlcNAc
How it was run: as §1

[11] = target: Neu5Ac(a2-6)Gal(b1-4)GlcNAc(b1-2)[Neu5Ac(a2-6)Gal(b1-4)GlcNAc(b1-4)]Man(a1-3)[GlcNAc(b1-4)][Neu5Ac(a2-6)Gal(b1-4)GlcNAc(b1-4)Man(a1-6)]Man(b1-4)GlcNAc(b1-4)GlcNAc
How it was run: as §1

[12] = target: Neu5Ac(a2-6)Gal(b1-4)GlcNAc(b1-2)[Neu5Ac(a2-6)Gal(b1-4)GlcNAc(b1-6)]Man(a1-6)[Neu5Ac(a2-6)Gal(b1-4)GlcNAc(b1-2)Man(a1-3)][GlcNAc(b1-4)]Man(b1-4)GlcNAc(b1-4)GlcNAc
How it was run: as §1

[13] = target: Neu5Ac(a2-6)Gal(b1-4)GlcNAc(b1-3)Gal(b1-3)GlcNAc
How it was run: as §1

[14] = target: Neu5Ac(a2-6)Gal(b1-4)GlcNAc(b1-3)Gal(b1-4)GlcNAc
How it was run: as §1

[15] = target: Neu5Ac(a2-6)Gal(b1-4)GlcNAc(b1-3)Gal(b1-4)GlcNAc(b1-2)Man(a1-3)[Neu5Ac(a2-6)Gal(b1-4)GlcNAc(b1-3)Gal(b1-4)GlcNAc(b1-2)Man(a1-6)]GalNAc
How it was run: as §1

[16] = target: Neu5Ac(a2-6)Gal(b1-4)GlcNAc(b1-3)Gal(b1-4)GlcNAc(b1-3)Gal(b1-4)GlcNAc
How it was run: as §1

[17] = target: Neu5Ac(a2-6)Gal(b1-4)GlcNAc(b1-3)Gal(b1-4)GlcNAc(b1-3)Gal(b1-4)GlcNAc(b1-2)Man(a1-3)[Neu5Ac(a2-6)Gal(b1-4)GlcNAc(b1-3)Gal(b1-4)GlcNAc(b1-3)Gal(b1-4)GlcNAc(b1-2)Man(a1-6)]GalNAc
How it was run: as §1

[18] = target: Neu5Ac(a2-6)Gal(b1-4)GlcNAc(b1-3)Gal(b1-4)GlcNAc(b1-3)GalNAc
How it was run: as §1

[19] = target: Neu5Ac(a2-6)Gal(b1-4)GlcNAc(b1-3)Gal(b1-4)GlcNAc(b1-3)[Neu5Ac(a2-6)Gal(b1-4)GlcNAc(b1-3)Gal(b1-4)GlcNAc(b1-6)]GalNAc
How it was run: as §1

[20] = target: Neu5Ac(a2-6)Gal(b1-4)GlcNAc(b1-3)Gal(b1-4)GlcNAc(b1-6)[Gal(b1-3)]GalNAc
How it was run: as §1

[21] = target: Neu5Ac(a2-6)Gal(b1-4)GlcNAc(b1-3)Gal(b1-4)[Fuc(a1-3)]GlcNAc(b1-3)Gal(b1-4)[Fuc(a1-3)]GlcNAc
How it was run: as §1

[22] = target: Neu5Ac(a2-6)Gal(b1-4)GlcNAc(b1-3)GalNAc
How it was run: as §1

[23] = target: Neu5Ac(a2-6)Gal(b1-4)GlcNAc(b1-3)[Neu5Ac(a2-6)Gal(b1-4)GlcNAc(b1-6)]GalNAc
How it was run: as §1

[24] = target: Neu5Ac(a2-6)Gal(b1-4)GlcNAc(b1-6)GalNAc
How it was run: as §1

[25] = target: Neu5Ac(a2-6)Gal(b1-4)GlcNAc(b1-6)[Gal(b1-3)GlcNAc(b1-3)]Gal(b1-4)Glc
How it was run: as §1

[26] = target: Neu5Ac(a2-6)Gal(b1-4)GlcNAc(b1-6)[Gal(b1-3)]GalNAc
How it was run: as §1

[27] = target: Neu5Ac(a2-6)Gal(b1-4)GlcNAc6S
How it was run: as §1

[28] = target: Neu5Ac(a2-6)GalNAc
How it was run: as §1

[29] = target: Neu5Ac(a2-6)GalNAc(b1-4)GlcNAc
How it was run: as §1

[30] = target: Neu5Ac(a2-6)GalNAc(b1-4)GlcNAc6S
How it was run: as §1

[31] = target: Neu5Ac(a2-6)GlcNAc(b1-4)GlcNAc
How it was run: as §1

B1: rAAL-I144G (Agrocybe aegerita), Q6WY08 (protein)
chain: MQGVNIYNISAGTSVDLAAPVTTGDIVTFFSSALNLNAGAGNPNNTTLNLFAENGAYLLHIAFRLQENVIIFNSRQPDGPWLVEQRVSDVANQFAGIDGKAMVTVFDHGDKYQVVINEKTVIQYTKQISGLTLSLSYNATEETSGFSTVVEAVTYTGLALEHHHHHH
glycan array binding signal (z-score) [1]: -0.192 | glycan array binding signal (z-score) [2]: -0.114 | glycan array binding signal (z-score) [3]: -0.108 | glycan array binding signal (z-score) [4]: -0.111 | glycan array binding signal (z-score) [5]: -0.049 | glycan array binding signal (z-score) [6]: -0.119 | glycan array binding signal (z-score) [7]: -0.147 | glycan array binding signal (z-score) [8]: -0.12 | glycan array binding signal (z-score) [9]: -0.001 | glycan array binding signal (z-score) [10]: -0.165 | glycan array binding signal (z-score) [11]: -0.144 | glycan array binding signal (z-score) [12]: -0.164 | glycan array binding signal (z-score) [13]: -0.088 | glycan array binding signal (z-score) [14]: -0.176 | glycan array binding signal (z-score) [15]: -0.13 | glycan array binding signal (z-score) [16]: -0.095 | glycan array binding signal (z-score) [17]: 0.006 | glycan array binding signal (z-score) [18]: -0.106 | glycan array binding signal (z-score) [19]: -0.095 | glycan array binding signal (z-score) [20]: -0.142 | glycan array binding signal (z-score) [21]: -0.095 | glycan array binding signal (z-score) [22]: -0.16 | glycan array binding signal (z-score) [23]: 0.049 | glycan array binding signal (z-score) [24]: -0.143 | glycan array binding signal (z-score) [25]: -0.106 | glycan array binding signal (z-score) [26]: -0.097 | glycan array binding signal (z-score) [27]: 0.002 | glycan array binding signal (z-score) [28]: -0.167 | glycan array binding signal (z-score) [29]: -0.194 | glycan array binding signal (z-score) [30]: -0.107 | glycan array binding signal (z-score) [31]: -0.122
